Assay results: publication PMC9692854
These are yes or no findings as the source states them, for the method shown. Some binding calls cover weakened binding; strength is not graded here. Each block holds one binder with its values, some of them ahead of it.

What was measured:
Assay in all cases: two-hybrid; ORFs in pGADT7 (AD, prey; strain Y187) or pGBKT7 (BD, bait; strain Y2HGold), pairwise mating; diploids grown 3 days at 30 °C on double-dropout (SDM/-Leu/-Trp/X-α-Gal/AbA) and quadruple-dropout (SDM/-Leu/-Trp/-Ade-His/X-α-Gal/AbA) medium; growth on quadruple dropout read as interaction
[1] = target: T1, Beauveria bassiana photolyase Phr1 (B. bassiana) (UniProt J4KQS2)
T1 sequence: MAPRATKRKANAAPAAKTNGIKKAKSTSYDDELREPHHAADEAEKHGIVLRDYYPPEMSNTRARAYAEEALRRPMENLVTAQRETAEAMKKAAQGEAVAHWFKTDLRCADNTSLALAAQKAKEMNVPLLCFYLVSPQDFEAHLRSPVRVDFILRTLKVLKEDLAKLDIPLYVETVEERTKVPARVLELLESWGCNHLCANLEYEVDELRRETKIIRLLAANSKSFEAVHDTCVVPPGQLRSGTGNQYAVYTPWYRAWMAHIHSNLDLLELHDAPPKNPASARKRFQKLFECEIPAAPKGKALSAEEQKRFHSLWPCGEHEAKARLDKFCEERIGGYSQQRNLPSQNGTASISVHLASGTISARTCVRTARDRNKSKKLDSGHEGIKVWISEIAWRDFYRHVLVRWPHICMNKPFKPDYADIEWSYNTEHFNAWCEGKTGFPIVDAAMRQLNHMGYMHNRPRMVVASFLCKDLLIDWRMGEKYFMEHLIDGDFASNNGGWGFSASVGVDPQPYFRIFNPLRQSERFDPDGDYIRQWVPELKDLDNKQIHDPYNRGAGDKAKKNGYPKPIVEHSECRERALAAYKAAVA

[2] = target: T2, Beauveria bassiana photolyase Phr2 (B. bassiana) (UniProt J4WK53)
T2 sequence: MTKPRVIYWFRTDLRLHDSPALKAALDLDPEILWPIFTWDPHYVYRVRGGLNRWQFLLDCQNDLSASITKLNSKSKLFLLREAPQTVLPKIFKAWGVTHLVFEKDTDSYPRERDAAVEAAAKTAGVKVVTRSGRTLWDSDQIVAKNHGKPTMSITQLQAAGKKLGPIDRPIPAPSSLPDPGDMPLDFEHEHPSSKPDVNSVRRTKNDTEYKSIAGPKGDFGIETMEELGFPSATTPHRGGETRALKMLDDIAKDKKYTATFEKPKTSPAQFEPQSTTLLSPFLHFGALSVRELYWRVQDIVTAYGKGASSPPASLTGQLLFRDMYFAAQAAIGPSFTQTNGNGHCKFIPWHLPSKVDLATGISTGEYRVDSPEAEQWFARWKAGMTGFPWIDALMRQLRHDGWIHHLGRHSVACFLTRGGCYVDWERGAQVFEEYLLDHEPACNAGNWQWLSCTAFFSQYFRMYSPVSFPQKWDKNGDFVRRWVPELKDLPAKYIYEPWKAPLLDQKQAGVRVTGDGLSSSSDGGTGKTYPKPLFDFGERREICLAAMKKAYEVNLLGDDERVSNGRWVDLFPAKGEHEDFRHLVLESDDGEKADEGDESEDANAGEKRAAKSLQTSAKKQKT

[3] = target: T3, Beauveria bassiana white collar protein WC2 (B. bassiana) (UniProt J5JYA0)
T3 sequence: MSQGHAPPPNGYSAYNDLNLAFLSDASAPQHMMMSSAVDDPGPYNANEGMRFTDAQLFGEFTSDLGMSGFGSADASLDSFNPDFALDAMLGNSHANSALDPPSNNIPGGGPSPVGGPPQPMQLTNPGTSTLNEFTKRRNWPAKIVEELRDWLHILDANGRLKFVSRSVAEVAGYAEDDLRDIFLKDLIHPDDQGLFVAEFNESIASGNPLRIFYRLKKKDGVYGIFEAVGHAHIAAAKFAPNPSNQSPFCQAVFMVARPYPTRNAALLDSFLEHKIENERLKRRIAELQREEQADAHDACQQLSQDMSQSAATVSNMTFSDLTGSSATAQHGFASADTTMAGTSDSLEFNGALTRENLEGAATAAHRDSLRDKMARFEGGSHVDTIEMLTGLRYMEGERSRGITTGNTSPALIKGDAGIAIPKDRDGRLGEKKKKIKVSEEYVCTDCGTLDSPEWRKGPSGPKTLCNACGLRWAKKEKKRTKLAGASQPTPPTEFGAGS

binding [1]: no binding
binding [2]: no binding
binding [3]: binds
B1: Beauveria bassiana Rad1 (protein, UniProt J4VYF0 1-940)
chain: MSTNNAPQPVKLSLPLEYQQALFQELRSEDELVVLARGLGLMRLVTNLLHSYDAAGNNLIVIVGAEDRENGWIGEALAEHAAISASPKARGLTVVNTDFQSVGAREKMYAAGGIFSITSRILVVDLLTALLSPETITGLIVLHADRIVATSLEAFILRVYRQKNKVGFLKAFADNPDPFTIGFSPLATMMRNLFLKKASLWPRFHVTVAQSLEGKKKAEVIELEVPMTEYMTDIQNAIMECVEISIHELKKGNPGLEMDDWNLDSALLKNFDVIVRRQLDPDWHRVSWKTKQIVNDLTVLRGLLAYVVSYDAVSFLQHLDTIHAAHSPPPGSTRQTQSPWLFLDAAQTLFETARKRVYSASIKQISQEENIDSLRPVLEELPKWSLLAEVLEEIDRDLHFEPHARDDSNGTILIMCSNIDTCRQLRNYLQTMHVKPKVTTKTSDDEDDPHKPSAIFMMRRRLRNYLRWKRQFAVVNASLFTENNKALNSATDSRPGHGGMRGGRAPSNKRRRQRGGGNMAVGMSRAENGSISQFFEKPNEVAELMAEVQITEEEAKQKDEVIADPLDNMEDYYQLYDMQDLVVIHAYDGDQDEHVLEEVRPRYIIMYEPDASFIRRVEVYRSSHNDRNVRVYFLYYGGSVEEQRYLASVRREKDAFTRLIKERASMSLVMTVEPHGIQDPQEAFLRTVNTRIAGGGRLAATAEPPRVVVDVREFRSSLPSLLHGRAMVIVPCMLTVGDYVLSPTICVERKSISDLVSSFKDGRLFTQAETMFQHYRNPMLLIEFDQNKSFTLEPFADLSGSMSSVSATNVSSDLQSKLVLLTLAFPKLRIIWSSSPYQTAEIFESLKTQEAEPDPIAAVRAGLDKDARAEDQVFNQEPQDMLAVVPGVTPQNIKNIIIKTENVKEVANMTPEELAPLVGKAAGRAIHAFFDRNVMDEEDY

binding [1]: no binding
binding [2]: no binding
binding [3]: binds
B2: Beauveria bassiana Rad10 (protein, UniProt J4UQI9 1-392)
chain: MADEYGADDALLAAMAAADSIPVPRRPVQQQPRPQKIQQPTPQRLDKAPPAASGSGGKVVQPTPQSLPQRQGASNILVSPRQRGNPVLTHLKSMPWEYSDIPADYVLGTTTCLLFLSLKYHRLHPEYVYTRIRNLQGKYNLRILLTMIDIPNHEDPLRELSKTSMVNNVTIVCCWSAAEAARYLELYKAYEHASFDAIRGKQSSSYAERLVDFVTVPRSLNKSDAVALVANFGSLKNAINADAEQLGMLSGWGGVKVKRWSAAIEEPFRAKNASKRILPTGDAAAVAALAEPDAANRGSRLQDAVPLSRVPLRDMPAASAAIEATPEAGQPVNSGKQFQFRGDTDDEDDELEAAATTTSKTAEAASKRAEFQAGQAEELSDGIAAALAKLRK
